{
  "source": "the supplement of paper PMC10338343",
  "note": "± gives the standard deviation. The entries are a selection whose mix differs from that of the whole data set.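 Further: 1 nM active piRISC with 0.1 nM target library at 33 °C single turnover.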",
  "data": [
    {"system": "MIWI (PIWIL1) piRISC loaded with piRNA #1 (30 nt)", "experiment": "pre-steady-state target cleavage rate (min^-1); MIWI and MILI are mouse PIWI proteins and EfPiwi is from a freshwater sponge; tags in brackets are library labels; higher = faster piRNA-guided slicing of the target", "settings": "guide: piRNA #1 5'p-UGAGGUAGUAGGUUGUAUAGUAUCCAGAGG; auxiliary factor: 500 nM mouse GTSF1", "procedure,_shortened": "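The pre-steady-state cleavage rate was derived from a burst-and-steady-state fit of Cleave-'n-Seq data. For these assays, 1 nM active affinity-purified piRISC loaded with a single synthetic guide was mixed with […] a transcribed, DNA-blocked target RNA library in HEPES–potassium acetate buffer at 33 °C, with or without 500 nM GTSF1 partner protein, for 0–8 or 0–960 min. Sequencing counts of uncleaved targets were normalised to depth and to weakly complementary targets, and k3 was capped at 0.0001 min^-1 after three trials were pooled.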", "values": [
      {"sequence": "GGAGACGAUACUAUACAACCUACUCACCUCA", "pre-steady-state target cleavage rate": "0.652 ± 0.045"},
      {"sequence": "GCUCUGGAUACGUAUACAACCUACUACCUCA", "pre-steady-state target cleavage rate": "1.46 ± 0.085"},
      {"sequence": "GGACUGGAAACAAUACAACCUACUACCUCA", "pre-steady-state target cleavage rate": "0.328 ± 0.048"},
      {"sequence": "GCUCUGGAUACUAUUGAACCUACUACCUCA", "pre-steady-state target cleavage rate": "1.12 ± 0.088"},
      {"sequence": "GGACUGGAUACUAUACAACCUACAUGCUCA", "pre-steady-state target cleavage rate": "0.00488 ± 0.0022"},
      {"sequence": "GCUCUGGAUACUAUACAGCCUACUACCUCA", "pre-steady-state target cleavage rate": "0.729 ± 0.03"},
      {"sequence": "GCUCUGGAUACUUAUCAACCUACUACCUCA", "pre-steady-state target cleavage rate": "0.893 ± 0.071"},
      {"sequence": "GGAGACCAUACUUAUCAACCUACUACCUCA", "pre-steady-state target cleavage rate": "0.134 ± 0.034"},
      {"sequence": "GCUCUGGUUAGUAUACAACCUACUACCUCA", "pre-steady-state target cleavage rate": "1.3 ± 0.072"},
      {"sequence": "GGACUGCAUAGUAUACAACCUACUACCUCA", "pre-steady-state target cleavage rate": "0.942 ± 0.11"},
      {"sequence": "GGAGAGGAUUCUAAACAACCUACUACCUCA", "pre-steady-state target cleavage rate": "0.742 ± 0.042"},
      {"sequence": "GGACUGGAUACUAAACAACCUACUACGUCA", "pre-steady-state target cleavage rate": "0.589 ± 0.069"},
      {"sequence": "CCUCUGGAUACUAUACAACCUCUACCUCA", "pre-steady-state target cleavage rate": "0.0145 ± 0.0051"},
      {"sequence": "GGAGUGGAAACUUUACAACCUACUACCUCA", "pre-steady-state target cleavage rate": "1.17 ± 0.085"},
      {"sequence": "GGAGACCUUACAAUACUACCUACUACCUCA", "pre-steady-state target cleavage rate": "0.00811 ± 0.0031"},
      {"sequence": "GGAGACCUAUCUUUACAAGCUACUACCUCA", "pre-steady-state target cleavage rate": "0.0778 ± 0.013"},
      {"sequence": "CGUCUGGAUACUAUACUACCUACUACCUCA", "pre-steady-state target cleavage rate": "1.55 ± 0.09"},
      {"sequence": "GGAGACCUAAGUAUACAACCUACAACCUCA", "pre-steady-state target cleavage rate": "0.00887 ± 0.0027"},
      {"sequence": "GGUCUGGAUACUAAACAACCUACUACCACA", "pre-steady-state target cleavage rate": "0.814 ± 0.066"},
      {"sequence": "GGAGACCUAUCUAUCACAACCUACUACCUCA", "pre-steady-state target cleavage rate": "0.0914 ± 0.015"},
      {"sequence": "GGAGACCUAACUAUACAUCCUACUACCUCA", "pre-steady-state target cleavage rate": "0.712 ± 0.07"},
      {"sequence": "GGAGACGAUUCAAUACAACCUACUACCUCA", "pre-steady-state target cleavage rate": "0.502 ± 0.063"},
      {"sequence": "GCUCUGCAUACUAUACAACCUACUACCUGA", "pre-steady-state target cleavage rate": "0.865 ± 0.12"},
      {"sequence": "GGAGAGGAUACUAUACAACCUACUGACCUCA", "pre-steady-state target cleavage rate": "0.576 ± 0.034"}
    ]}
  ]
}
